# Experimental data from PubChem BioAssay (NCATS).
# Values joined by “and” are separate entries in the source; they are usually repeats but may differ in a detail not shown here. Equal entries are not always repeated. The shares of active, inactive and inconclusive entries below differ from those in the screen. For part of these data: Where the call is inconclusive, the potency comes from a doubtful curve fit. Active and inactive are the calls of the source. Unless noted, calls follow the shape of the dose curve; as a rule, active = well fitted curve in the direction sought with a large enough effect; inconclusive = small, poorly fitted or top-dose-only effect, or another doubt; inactive = no such curve, though single readings can be large; an effect the other way counts as inactive or inconclusive. Numbered stars: 1 amine (or outer) side, 2 acyl side, 3 side chain; on linkers, the order of the positions; unused ones are H or OH. Bridge positions count the residues as written; N and C are the ends. Square brackets hold non-standard residues; d marks the D form. Peptide text beside a SMILES is read from it. I, II: the chains in the order shown. ξ: configuration not given here. Actinocin(9to1) = Cc1c2oc3c(C)ccc(C(=O)[*:1])c3nc-2c(C(=O)[*:2])c(N)c1=O; ξNMeV = CNC(C(=O)O)C(C)C; ξV = CC(C)C(N)C(=O)O; Sar = CNCC(=O)O
# Tests used:
# [1] = Primary qHTS for inhibitors of nuclear receptor binding SET domain protein 2 (NSD2) in an isogenic RCH-ACV NSD2 p.E1099K mutant (9B) (AID 1645876); conditions: RCH-ACV (leukaemia line) NSD2 E1099K (9B) viability, CellTiter-Glo, 72 h; series mostly up to 44.9 µM; also: potency is read from the fitted curve at half-maximal effect; nearly all actives have a fitted effect of over 70% in size
# [2] = Cytotoxicity counterscreen for NFkB agonists and antagonists (AID 624476); conditions: NFkB reporter cell line viability counterscreen; series mostly up to 46.1 µM; also: potency is read from the fitted curve at half-maximal effect
# [3] = qHTS Assay for Identification of Small Molecule Antagonists for NFkB Signaling Pathway. (AID 624479; calls by dose curve;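 also: pathway stimulated with TNF alpha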; also: potency is read from the fitted curve at half-maximal effect); conditions: NFkB pathway reporter cell assay, antagonist mode; series mostly up to 38.3 µM
# [4] = qHTS of pediatric cancer cell lines to identify multiple opportunities for drug repurposing: Primary screen for TC32 cells (AID 1347089); conditions: TC32 Ewing sarcoma viability, CellTiter-Glo luminescence, 48 h; series mostly up to 45.8 µM; also: potency is read from the fitted curve at half-maximal effect; nearly all actives have a fitted effect of over 60% in size
# Method in brief: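 TC32 cells, 500-1,000/well in growth medium, compound-treated 48 h at 37 °C; viability from CellTiter-Glo luminescence. Primary screen: MIPE 11-point (0.78 nM–46 µM final), NPC 8-point (0.59 nM–46 µM final); confirmatory at 11-point dilutions.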
# [5] = qHTS of pediatric cancer cell lines to identify multiple opportunities for drug repurposing: Primary screen for NB-EBc1 cells (AID 1347095); conditions: NB-EBc1 neuroblastoma viability, CellTiter-Glo luminescence, 48 h; series mostly up to 46 µM; also: potency is read from the fitted curve at half-maximal effect
# Method in brief: (§1)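 Following a 5-hour attachment period, cells at 500-1,000/well received compounds and were cultured for 48 hours. CellTiter-Glo was added and luminescence read to estimate viable, metabolically active cells.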
# [6] = qHTS of pediatric cancer cell lines to identify multiple opportunities for drug repurposing: Primary screen for Saos-2 cells (AID 1347097); conditions: Saos-2 viability, CellTiter-Glo ATP luminescence, 48 h; activity change, negative = cytotoxic: at 46 µM (top of the series); also: potency is read from the fitted curve at half-maximal effect; nearly all actives have a fitted effect of over 40% in size
# Method in brief: as §1
# [7] = qHTS of pediatric cancer cell lines to identify multiple opportunities for drug repurposing: Primary screen for SK-N-SH cells (AID 1347098); conditions: SK-N-SH viability, CellTiter-Glo luminescence, 48 h; activity change, negative = cytotoxic: at 57 µM (top of the series); also: potency is read from the fitted curve at half-maximal effect; nearly all actives have a fitted effect of over 65% in size
# Method in brief: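 Cells (500-1,000/well) rested 5 h, then received compounds for 48 h; metabolically active cells were measured by CellTiter-Glo luminescence. Final concentrations spanned up to 46 µM (MIPE, 11-point) or 0.59 nM-46 µM (NPC, 8-point) in primary screens, 11-point in follow-ups.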
# [8] = qHTS of pediatric cancer cell lines to identify multiple opportunities for drug repurposing: Primary screen for MG 63 (6-TG R) cells (AID 1347105); conditions: MG 63 (6-TG R) viability, CellTiter-Glo, 48 h; activity change, negative = cytotoxic: at 46 µM (top of the series) unless noted; also: potency is read from the fitted curve at half-maximal effect; nearly all actives have a fitted effect of over 50% in size
# Method in brief: as §1
# [9] = qHTS of pediatric cancer cell lines to identify multiple opportunities for drug repurposing: Primary screen for control Hh wild type fibroblast cells (AID 1347106); conditions: Hh wild-type fibroblast viability, CellTiter-Glo luminescence, 48 h; series mostly up to 46 µM; also: potency is read from the fitted curve at half-maximal effect; nearly all actives have a fitted effect of over 55% in size
# Method in brief: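 Viability after 48 h compound treatment at 37C, 500-1,000 cells/well, read as ATP luminescence with CellTiter-Glo. Primary screens used 11-point (MIPE, 0.78 nM-46 µM) or 8-point (NPC, 0.59 nM-46 µM) final concentrations; follow-up screens used 11-point dilutions.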
# [10] = qHTS to identify inhibitors of the type 1 interferon - major histocompatibility complex class I in skeletal muscle: primary screen against the NCATS Mechanism Interrogation Plate v5.0 (MIPE) Libary (AID 1347411); conditions: iHSKM cells + IFN-b, HiBiT-tagged MHC-I luminescence, 24 h; series mostly up to 45.8 µM; also: potency is read from the fitted curve at half-maximal effect; nearly all actives have a fitted effect of over 65% in size
# Method in brief: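 Luminescence from HiBiT-tagged endogenous HLA-B*08:01 served as the MHC class I read-out. CRISPR-engineered C25cl48 human myoblasts received 4.0 ng/ml IFN-beta plus compound for 24 hrs, with an 11-point, 1:3 series topping at 46 uM final.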
# [11] = Quantitative High-Throughput drug screen in 47 multiple myeloma cell lines against the NCATS MIPE library collection: H1112_PLB cell viability assay (AID 1918967; also: potency is read from the fitted curve at half-maximal effect; nearly all actives have a fitted effect of over 30% in size); conditions: H1112 myeloma cells viability, ATP luminescence, 48 h; series mostly up to 45.8 µM
# Method in brief: (§2)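 We plated 500 myeloma cells per well, pinned in MIPE 4.0 compounds, and incubated for 48 hours at 37C. ATP was then quantified with CellTiter-Glo, with DMSO and media-only wells defining 100% and 0%.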
# [12] = Quantitative High-Throughput drug screen in 47 multiple myeloma cell lines against the NCATS MIPE library collection: KMS27_JCRB cell viability assay (AID 1918970); conditions: KMS27 myeloma cells, CellTiter-Glo ATP viability, 48 h; viability (% of DMSO): at 45.8 µM (top of the series); also: nearly all actives have a fitted effect of over 30% in size; also: potency is read from the fitted curve at half-maximal effect
# Method in brief: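 KMS27_JCRB myeloma cells, 500 per well, exposed 48 h at 37 C, 5% CO2 to MIPE 4.0 compounds. Viability from ATP by CellTiter-Glo luminescence, normalized to DMSO (100%) and medium-only (0%) wells.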
# [13] = qHTS for identification of novel therapeutic agents for treatment of microphthalmiaassociated transcription factor (MiT) renal cell carcinoma (RCC) (AID 1963991; calls by dose curve; also: potency is read from the fitted curve at half-maximal effect); conditions: TFE3-RCC UOK109 viability, CellTiter-Glo, 48 h; active = Z-AUC below -0.8 in all three lines
# Method in brief: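 Curves over 11 concentrations were fitted to CellTiter-Glo luminescence, scaled between empty wells (0%) and DMSO (100%) viability. Cells were UOK109, UOK124 and UOK145 TFE3-fusion RCC lines at 500/well, exposed 48 hours at 37 C.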
# MCC-26 = assay: qHTS assay to identify novel small-molecules to repurpose for Merkel cell carcinoma treatment (AID 1296009); conditions: MCC and control cell lines, CellTiter-Glo viability, 72 h; series mostly up to 46 µM; also: potency is read from the fitted curve at half-maximal effect; nearly all actives have a fitted effect of over 60% in size
# Method in brief: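 qHTS format: cells treated with library compounds in DMSO across 8 (NPC) or 11 (MIPE) concentrations. Readout after 72 hr at 37 degree celsius was CellTiter-Glo luminescence.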
# [14] = Quantitative High-Throughput drug screen in 47 multiple myeloma cell lines against the NCATS MIPE library collection: OCIMY7_PLB cell viability assay (AID 1918987); conditions: OCI-MY7 myeloma viability, CellTiter-Glo ATP, 48 h; viability (% of DMSO): at 45.8 µM (top of the series); also: nearly all actives have a fitted effect of over 65% in size; also: potency is read from the fitted curve at half-maximal effect
# Method in brief: (§3)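 MIPE 4.0 approved/investigational drugs; 500 cells/well; 48 h 37 °C humidified 5% CO2; CTG luminescence readout; DMSO = 100%, media = 0% viability.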
# [15] = Quantitative High-Throughput drug screen in 47 multiple myeloma cell lines against the NCATS MIPE library collection: OPM2_DSMZ cell viability assay (AID 1919872); conditions: OPM2 myeloma viability, CellTiter-Glo ATP luminescence, 48 h; series mostly up to 45.8 µM; also: nearly all actives have a fitted effect of over 30% in size; also: potency is read from the fitted curve at half-maximal effect
# Method in brief: as §2
# [16] = Quantitative High-Throughput drug screen in 47 multiple myeloma cell lines against the NCATS MIPE library collection: KMS28BM_JCRB cell viability assay (AID 1919874); conditions: CellTiter-Glo ATP, 48 h; series mostly up to 45.8 µM; also: potency is read from the fitted curve at half-maximal effect; nearly all actives have a fitted effect of over 35% in size
# Method in brief: as §3
# [17] = qHTS of pediatric cancer cell lines to identify multiple opportunities for drug repurposing: Primary screen for NB1643 cells (AID 1347099); conditions: NB1643 neuroblastoma viability, CellTiter-Glo luminescence, 48 h; series mostly up to 46 µM; also: potency is read from the fitted curve at half-maximal effect; nearly all actives have a fitted effect of over 50% in size
# Method in brief: as §1
# [18] = Quantitative High-Throughput drug screen in 47 multiple myeloma cell lines against the NCATS MIPE library collection: MMM1_PLB cell viability assay (AID 1918976); conditions: MMM1 myeloma cells viability, CellTiter-Glo, 48 h; series mostly up to 45.8 µM; also: nearly all actives have a fitted effect of over 35% in size
# Method in brief: as §3
# Tags tell the direction and shape of the fitted curve.
compound,measurement,setting,value
CCOc1cc2ncc(C#N)c(Nc3ccc(OCc4ccccn4)c(Cl)c3)c2cc1NC(=O)/C=C/CN(C)C,Potency,[1],active: 282 nM and active: 1.32 µM
Cn1c(=O)n(-c2ccc(C(C)(C)C#N)cc2)c2c3cc(-c4cnc5ccccc5c4)ccc3ncc21,Potency,[2],"inconclusive: 0.209 µM [inhibitor, full curve]"
same,Potency,[3],inactive
same,Potency,[4],"inconclusive: 0.0523 µM [cytotoxic, full curve]"
same,Potency,[5],active: 0.372 µM
same,Potency,[6],active: 0.235 µM
same,Potency,[7],"inconclusive: 8.57 µM [cytotoxic, partial curve]"
same,Potency,[8],active: 0.0148 µM
same,Potency,[9],"inconclusive: 0.0418 µM [cytotoxic, full curve]"
same,Potency,[10],"inconclusive: 0.0477 µM [inhibitor, full curve]"
same,Potency,[11],"inconclusive: 1.18 µM [cytotoxic, full curve]"
same,Potency,[12],"inconclusive: 0.0372 µM [cytotoxic, full curve]"
same,Potency,[13],"inconclusive: 0.0166 µM [falling, full curve]"
same,Potency,MCC-26,"inconclusive: 0.0935 µM [inhibitor, full curve]"
c1cc(-c2cnn3cc(-c4ccc(OCCN5CCCCC5)cc4)cnc23)ccn1,Potency,[4],"inconclusive: 8.29 µM [cytotoxic, partial curve]"
same,Potency,[6],"inconclusive: 0.833 µM [cytotoxic, full curve, poor fit]"
same,Potency,[7],active: 21.5 µM
same,Potency,[9],"inconclusive: 23.5 µM [cytotoxic, single point]"
same,Potency,[10],active: 10.4 µM
same,Potency,[11],active: 2.96 µM
same,Potency,[12],inactive
same,Potency,[14],active: 2.09 µM
same,Potency,[15],active: 20.9 µM
same,Potency,[16],"inconclusive: 5.9 µM [cytotoxic, full curve, poor fit]"
same,Potency,[13],"inconclusive: 16.6 µM [falling, partial curve]"
same,Potency,MCC-26,"inconclusive: 13.2 µM [inhibitor, partial curve]"
Cc1cc(-c2nnc3n2CCCCC3)c(C)n1-c1ccc(F)cc1,Potency,[2],inactive
same,Potency,[3],inactive
COc1cc2c(Oc3ccc(-c4cnc(Nc5ccc(F)cc5)n(C)c4=O)cc3F)ccnc2cc1OCCCN1CCOCC1,Potency,[7],active: 15.2 µM
same,Potency,[8],active: 3.72 µM
same,Potency,[9],active: 23.5 µM
same,Potency,[10],"inconclusive: 46.6 µM [inhibitor, single point]"
same,Potency,[14],active: 7.43 µM
same,Potency,[15],"inconclusive: 13.2 µM [cytotoxic, partial curve, poor fit]"
same,Potency,[13],"inconclusive: 16.6 µM [falling, partial curve]"
same,Potency,MCC-26,active: 7.43 µM
"Cc1c2oc3c(C)ccc(C(=O)N[C@@H]4C(=O)NC(C(C)C)C(=O)N5CCC[C@H]5C(=O)N(C)CC(=O)N(C)C(C(C)C)C(=O)O[C@@H]4C)c3nc-2c(C(=O)N[C@@H]2C(=O)NC(C(C)C)C(=O)N3CCC[C@H]3C(=O)N(C)CC(=O)N(C)C(C(C)C)C(=O)O[C@@H]2C)c(N)c1=O (some centres undefined) (I: T[ξV]P[Sar][ξNMeV] / II: T[ξV]P[Sar][ξNMeV]; ester I:1-I:C, II:1-II:C; linker I:N-II:N via Actinocin(9to1))",Potency,[3],active: 0.0119 µM
COc1ccc(COc2cc3oc(=O)c4cc(C(C)O)ccc4c3cc2OC)cc1 (centres undefined),Potency,[2],"inconclusive: 37.2 µM [inhibitor, partial curve, poor fit]"
same,Potency,[3],inactive
same,Potency,[7],"inconclusive: 24.1 µM [cytotoxic, partial curve, poor fit]"
same,Potency,[9],"inconclusive: 8.33 µM [cytotoxic, partial curve, poor fit]"
same,Potency,[1],"inconclusive: 18.4 µM [inhibitor, single point] and inconclusive: 20.9 µM [inhibitor, single point]"
same,Potency,[12],"inconclusive: 3.72 µM [cytotoxic, partial curve, poor fit]"
same,Potency,[14],"inconclusive: 1.66 µM [cytotoxic, full curve, poor fit]"
same,Potency,[15],"inconclusive: 20.9 µM [cytotoxic, partial curve]"
same,Potency,[16],"inconclusive: 33.2 µM [cytotoxic, partial curve, poor fit]"
same,Potency,[13],"inconclusive: 16.6 µM [falling, partial curve]"
COc1ccc(C=Cc2cc(OC)c(OC)c(OC)c2)cc1O,Potency,[4],active: 0.0004 µM
same,Potency,[7],"inconclusive: 0.152 µM [cytotoxic, full curve, poor fit]"
same,Potency,[17],"inconclusive: 0.0033 µM [cytotoxic, full curve]"
same,Potency,[18],inactive
same,Potency,[14],inactive
same,Potency,[15],inactive
same,Potency,[13],"inconclusive: 1.18 µM [falling, full curve]"
